Results as given in PMC9911399, “Two distinct binding modes provide the RNA-binding protein RbFox with extraordinary sequence specificity”.
Positions count from the first letter of the chain named. The list shows a part of the results.

T1: RBFOX1 RRM RbFoxmut (Fox-RRM*) (Homo sapiens, UniProt Q9NWB1 109-208, R118D;E147R;N151S;E152T)
T1 sequence: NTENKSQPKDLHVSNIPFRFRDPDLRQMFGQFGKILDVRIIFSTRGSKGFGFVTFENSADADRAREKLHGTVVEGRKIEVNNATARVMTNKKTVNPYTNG

B1: GGCGAGU (DNA:RNA)
RNA: GGGAGACCGGAAUUCAGAUUGUCCGGCGAGUUUAAAUCCCGUCGUAGCCACCA
DNA 1: CAATCTGAATTCCGGTCTCCC
DNA 2: TGGTGGCTACGACGGGATT
B2: GAGGGUC (DNA:RNA)
RNA: B1 RNA with G26A, C27G, A29G, G30U, U31C
DNA 1: CAATCTGAATTCCGGTCTCCC
DNA 2: TGGTGGCTACGACGGGATT
B3: CACGUGC (DNA:RNA)
RNA: B1 RNA with G25C, G26A, A29U, U31C
DNA 1: CAATCTGAATTCCGGTCTCCC
DNA 2: TGGTGGCTACGACGGGATT
B4: CUCGUUC (DNA:RNA)
RNA: B1 RNA with G25C, G26U, A29U, G30U, U31C
DNA 1: CAATCTGAATTCCGGTCTCCC
DNA 2: TGGTGGCTACGACGGGATT
B5: GGUUGUA (DNA:RNA)
RNA: B1 RNA with C27U, G28U, A29G, G30U, U31A
DNA 1: CAATCTGAATTCCGGTCTCCC
DNA 2: TGGTGGCTACGACGGGATT
B6: AUUUGAG (DNA:RNA)
RNA: GGGAGACCGGAAUUCAGAUUGUCCAUUUGAGUUAAAUCCCGUCGUAGCCACCA
DNA 1: CAATCTGAATTCCGGTCTCCC
DNA 2: TGGTGGCTACGACGGGATT
B7: GUUUGAC (DNA:RNA)
RNA: B6 RNA with A25G, G31C
DNA 1: CAATCTGAATTCCGGTCTCCC
DNA 2: TGGTGGCTACGACGGGATT
B8: UCACUUG (DNA:RNA)
RNA: B6 RNA with A25U, U26C, U27A, U28C, G29U, A30U
DNA 1: CAATCTGAATTCCGGTCTCCC
DNA 2: TGGTGGCTACGACGGGATT
B9: UGCGCAU (DNA:RNA)
RNA: B1 RNA with G25U, A29C, G30A
DNA 1: CAATCTGAATTCCGGTCTCCC
DNA 2: TGGTGGCTACGACGGGATT
B10: UCUGGGA (DNA:RNA)
RNA: B6 RNA with A25U, U26C, U28G, A30G, G31A
DNA 1: CAATCTGAATTCCGGTCTCCC
DNA 2: TGGTGGCTACGACGGGATT
B11: CGUUCUC (DNA:RNA)
RNA: B6 RNA with A25C, U26G, G29C, A30U, G31C
DNA 1: CAATCTGAATTCCGGTCTCCC
DNA 2: TGGTGGCTACGACGGGATT
B12: AGGGGGA (DNA:RNA)
RNA: B1 RNA with G25A, C27G, A29G, U31A
DNA 1: CAATCTGAATTCCGGTCTCCC
DNA 2: TGGTGGCTACGACGGGATT
B13: GGGCCCU (DNA:RNA)
RNA: B1 RNA with C27G, G28C, A29C, G30C
DNA 1: CAATCTGAATTCCGGTCTCCC
DNA 2: TGGTGGCTACGACGGGATT
B14: GCCGCUG (DNA:RNA)
RNA: B1 RNA with G26C, A29C, G30U, U31G
DNA 1: CAATCTGAATTCCGGTCTCCC
DNA 2: TGGTGGCTACGACGGGATT
B15: AAUGUAG (DNA:RNA)
RNA: B6 RNA with U26A, U28G, G29U
DNA 1: CAATCTGAATTCCGGTCTCCC
DNA 2: TGGTGGCTACGACGGGATT
B16: CGCAAUC (DNA:RNA)
RNA: B1 RNA with G25C, G28A, G30U, U31C
DNA 1: CAATCTGAATTCCGGTCTCCC
DNA 2: TGGTGGCTACGACGGGATT
B17: GAUGCCA (DNA:RNA)
RNA: B1 RNA with G26A, C27U, A29C, G30C, U31A
DNA 1: CAATCTGAATTCCGGTCTCCC
DNA 2: TGGTGGCTACGACGGGATT
B18: CAUCGCU (DNA:RNA)
RNA: B6 RNA with A25C, U26A, U28C, A30C, G31U
DNA 1: CAATCTGAATTCCGGTCTCCC
DNA 2: TGGTGGCTACGACGGGATT
B19: UGCGCUG (DNA:RNA)
RNA: B1 RNA with G25U, A29C, G30U, U31G
DNA 1: CAATCTGAATTCCGGTCTCCC
DNA 2: TGGTGGCTACGACGGGATT
B20: UAAUAAC (DNA:RNA)
RNA: B6 RNA with A25U, U26A, U27A, G29A, G31C
DNA 1: CAATCTGAATTCCGGTCTCCC
DNA 2: TGGTGGCTACGACGGGATT
B21: UUGGCGU (DNA:RNA)
RNA: B1 RNA with G25U, G26U, C27G, A29C
DNA 1: CAATCTGAATTCCGGTCTCCC
DNA 2: TGGTGGCTACGACGGGATT
B22: UUCUGCG (DNA:RNA)
RNA: B6 RNA with A25U, U27C, A30C
DNA 1: CAATCTGAATTCCGGTCTCCC
DNA 2: TGGTGGCTACGACGGGATT
B23: CCAAUAG (DNA:RNA)
RNA: B6 RNA with A25C, U26C, U27A, U28A, G29U
DNA 1: CAATCTGAATTCCGGTCTCCC
DNA 2: TGGTGGCTACGACGGGATT
B24: GAAAAUA (DNA:RNA)
RNA: B1 RNA with G26A, C27A, G28A, G30U, U31A
DNA 1: CAATCTGAATTCCGGTCTCCC
DNA 2: TGGTGGCTACGACGGGATT
B25: GUUGGGA (DNA:RNA)
RNA: B6 RNA with A25G, U28G, A30G, G31A
DNA 1: CAATCTGAATTCCGGTCTCCC
DNA 2: TGGTGGCTACGACGGGATT
B26: UCCGCUU (DNA:RNA)
RNA: B1 RNA with G25U, G26C, A29C, G30U
DNA 1: CAATCTGAATTCCGGTCTCCC
DNA 2: TGGTGGCTACGACGGGATT
B27: GAGAAAG (DNA:RNA)
RNA: B6 RNA with A25G, U26A, U27G, U28A, G29A
DNA 1: CAATCTGAATTCCGGTCTCCC
DNA 2: TGGTGGCTACGACGGGATT
B28: UACGGUG (DNA:RNA)
RNA: B6 RNA with A25U, U26A, U27C, U28G, A30U
DNA 1: CAATCTGAATTCCGGTCTCCC
DNA 2: TGGTGGCTACGACGGGATT
B29: GGUGCAC (DNA:RNA)
RNA: B1 RNA with C27U, A29C, G30A, U31C
DNA 1: CAATCTGAATTCCGGTCTCCC
DNA 2: TGGTGGCTACGACGGGATT
B30: AAUUCCC (DNA:RNA)
RNA: B6 RNA with U26A, G29C, A30C, G31C
DNA 1: CAATCTGAATTCCGGTCTCCC
DNA 2: TGGTGGCTACGACGGGATT
B31: CCAGAUG (DNA:RNA)
RNA: B1 RNA with G25C, G26C, C27A, G30U, U31G
DNA 1: CAATCTGAATTCCGGTCTCCC
DNA 2: TGGTGGCTACGACGGGATT

These binders were tested against T1, RBFOX1 RRM RbFoxmut (Fox-RRM*) (assay: EMSA; HiTS-Eq, 1 nM pool, 10 min; buffer printed only for the single-RNA assays: 10 mM Tris pH 7.5, 150 mM NaCl, 3.4 mM EDTA, 0.001% NP-40, 30 C). Settings: tags: His6 N-terminal (pET28a); label: 5' 32P.
Outline: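 Purified RbFox RRM (wild type or mutant) was equilibrated for 10 min in 50 µL with 1 nM of a 5′-radiolabelled pool of RNA with 7 randomized nucleotides, its flanks annealed to DNA oligonucleotides, across increasing protein concentrations. Free RNA was separated by 8% native PAGE, excised, reverse-transcribed, PCR-barcoded and sequenced on an Illumina HiSeq 2500. Relative association constants came from read-count changes of each variant against the control reaction, normalised to the cognate motif.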

Point of comparison: B19, binding signal 0.127 KA relative to UGCAUGU. Against it:
- B1 — lower, 0.0945 KA relative to UGCAUGU
- B2 — higher, 0.153 KA relative to UGCAUGU
- B3 — higher, 0.135 KA relative to UGCAUGU
- B4 — lower, 0.0837 KA relative to UGCAUGU
- B5 — higher, 0.256 KA relative to UGCAUGU
- B6 — lower, 0.1 KA relative to UGCAUGU
- B7 — higher, 0.157 KA relative to UGCAUGU
- B8 — lower, 0.109 KA relative to UGCAUGU
- B9 — lower, 0.0907 KA relative to UGCAUGU
- B10 — lower, 0.0496 KA relative to UGCAUGU
- B11 — lower, 0.0553 KA relative to UGCAUGU
- B12 — higher, 0.149 KA relative to UGCAUGU
- B13 — lower, 0.0684 KA relative to UGCAUGU
- B14 — lower, 0.086 KA relative to UGCAUGU
- B15 — higher, 0.166 KA relative to UGCAUGU
- B16 — lower, 0.0566 KA relative to UGCAUGU
- B17 — lower, 0.072 KA relative to UGCAUGU
- B18 — lower, 0.113 KA relative to UGCAUGU
- B20 — lower, 0.06 KA relative to UGCAUGU
- B21 — higher, 0.145 KA relative to UGCAUGU
- B22 — higher, 0.135 KA relative to UGCAUGU
- B23 — higher, 0.135 KA relative to UGCAUGU
- B24 — lower, 0.086 KA relative to UGCAUGU
- B25 — lower, 0.0849 KA relative to UGCAUGU
- B26 — lower, 0.073 KA relative to UGCAUGU
- B27 — lower, 0.105 KA relative to UGCAUGU
- B28 — lower, 0.107 KA relative to UGCAUGU
- B29 — lower, 0.0734 KA relative to UGCAUGU
- B30 — lower, 0.0566 KA relative to UGCAUGU
- B31 — higher, 0.133 KA relative to UGCAUGU
